About 420 (8.8%) of roughly 4,800 compounds showed an effect of 50% or more. The list shows a part of the results.
tested on: Plasmodium falciparum; assay: Confirmatory screen in NF54 nanoGlo assay, in single point, at 2uM, 72h; type: functional, Erythrocyte; details: timepoint 72 hour

Question: With O=C(c1cccc(C(F)(F)F)c1)c1c[nH]c(C(=O)NCc2cccnc2)c1 as the compound, how does the “% Inhibition” value read?
Answer: -23%

Question: With CCCn1nnc(N(C(=O)c2cc(Br)cc(C)c2OC)C(=O)c2cc(Br)cc(C)c2OC)n1 as the compound, how does the “% Inhibition” value read?
Answer: -6%

Question: How did the “% Inhibition” value turn out when COc1ccccc1CNC(=O)c1cnn2c3c(cnc12)CCCC3 was run?
Answer: -12%

Question: Which “% Inhibition” value does the source give for CC[C@H](C)n1ncc(C(=O)N2CCNCC2)c1C1CC1 here?
Answer: -16%

Question: Which “% Inhibition” value does the source give for CC(C)c1nnc(Cn2nnc(-c3ccncn3)n2)s1 here?
Answer: -12%

Question: Which “% Inhibition” value does the source give for Cc1cc2n(n1)C(C(F)(F)F)CCN2C(=O)C(C)N1C(=O)C2CCCCC2C1=O (stereo not drawn) here?
Answer: 1%

Question: With Cc1onc(N)c1S(=O)(=O)Nc1ccncc1 as the compound, how does the “% Inhibition” value read?
Answer: -7%

Question: O=C(Nc1ccncc1)c1nc(N2CCCC2)ncc1Br was tested. Which “% Inhibition” value did it give?
Answer: -5%

Question: For Cc1ccc(NC(=O)[C@H]2CN(S(=O)(=O)C3CC3)CC23CCCCC3)c(C)c1, which “% Inhibition” value is on record?
Answer: 1%

Question: For Cc1csc(NC(=O)[C@]2(C)Oc3ccccc3NC2=O)n1, which “% Inhibition” value is on record?
Answer: 0%

Question: How did the “% Inhibition” value turn out when Cn1nc(C2CC2)c2c(C(F)F)cc(C(F)F)nc21 was run?
Answer: 4%

Question: With O=C1COc2ccc(S(=O)(=O)N3CC[C@H]3c3ccccc3)cc2N1 as the compound, how does the “% Inhibition” value read?
Answer: -5%

Question: For Cc1cc(=O)n(CC(=O)Nc2ccc(Cl)c(C(F)(F)F)c2)c(-c2ccc(F)cc2)n1, which “% Inhibition” value is on record?
Answer: -6%

Question: For C[C@@](CO)(NC(=O)Nc1cc(-c2ccco2)ccc1F)C1CC1, which “% Inhibition” value is on record?
Answer: -4%

Question: For C[C@H](C(=O)Nc1ccc(F)cc1Cn1ccsc1=O)C1CC1, which “% Inhibition” value is on record?
Answer: -18%

Question: Cn1cc(Br)cc1C(=O)N1CC(O)(C2CC2)C1 was tested. Which “% Inhibition” value did it give?
Answer: -2%

Question: With O=C(NCCN1CCCC1)c1cc2n(n1)CCN(Cc1cccc(F)c1)C2=O as the compound, how does the “% Inhibition” value read?
Answer: -9%

Question: Which “% Inhibition” value does the source give for COc1ccc(-c2cnn3ccc(-c4ccc(-n5ccc(=O)cc5)cc4)nc23)cc1OC here?
Answer: 5%

Question: How did the “% Inhibition” value turn out when Cc1cc(C)n(-c2c(C)[nH]c3ccccc23)n1 was run?
Answer: -7%

Question: For Cc1nn(C)c(C)c1S(=O)(=O)N1CCCN(c2ccc(F)c(F)c2)CC1, which “% Inhibition” value is on record?
Answer: 3%

Question: Which “% Inhibition” value does the source give for Cc1nnc(CNC(=O)Nc2cccc3c4c(oc23)CCCC4)o1 here?
Answer: 46%

Question: Which “% Inhibition” value does the source give for Cc1cc(F)ccc1-n1nnc(C(=O)O)c1-c1cccnc1 here?
Answer: -2%

Question: Which “% Inhibition” value does the source give for CC[C@@H](C(=O)NC)n1ccc2cc(S(=O)(=O)N3CCCCC3)ccc21 here?
Answer: -2%

Question: With Cc1ccc(CCNC(=O)c2ccc(-c3nc(CS(=O)(=O)c4ccc(C)cc4)c(C)o3)cc2)cc1 as the compound, how does the “% Inhibition” value read?
Answer: -14%

Question: Which “% Inhibition” value does the source give for CCNc1nc(C)cc(Nc2ccc(NC(=O)c3cc(C)ccc3C)cc2)n1 here?
Answer: 98%

Question: Which “% Inhibition” value does the source give for Cc1cc(C(=O)Nc2c(F)cccc2OCc2ccccc2)on1 here?
Answer: 19%

Question: Fc1ccccc1-c1c2c(nc3ccc(Cl)cc13)CCCCCC2 was tested. Which “% Inhibition” value did it give?
Answer: -10%

Question: With COc1cccc(-c2noc3nc(C)cc(C(=O)N[C@@H](C)c4ccn(C)n4)c23)c1 as the compound, how does the “% Inhibition” value read?
Answer: -10%

Question: How did the “% Inhibition” value turn out when Cc1ccc(S(=O)(=O)Nc2c(S(=O)(=O)c3ccccc3)c3nc4ccccc4nc3n2CCc2ccccc2)cc1 was run?
Answer: 97%

Question: With O=C(Nc1ccc(N2CCn3c(nc4cc(Cl)ccc43)C2)cc1)c1ccc(F)cc1 as the compound, how does the “% Inhibition” value read?
Answer: -6%

Question: CN(C)c1nccc(NC[C@H](N)c2ccccc2)n1 was tested. Which “% Inhibition” value did it give?
Answer: -13%

Question: Which “% Inhibition” value does the source give for O=C(c1ccc(F)cc1)c1c[nH]c(C(=O)NCc2ccc(F)cc2)c1 here?
Answer: -27%

Question: COc1cccc(N2CCN(c3cc4n[nH]c(=O)n4cn3)CC2)c1 was tested. Which “% Inhibition” value did it give?
Answer: 4%

Question: Which “% Inhibition” value does the source give for Cc1ccoc1C(=O)Nc1ccc(Cc2nnc3ccccn23)cc1 here?
Answer: -10%

Question: Which “% Inhibition” value does the source give for CCNC(=O)c1nc(C(=O)NCc2ccco2)cs1 here?
Answer: -12%

Question: How did the “% Inhibition” value turn out when COc1ccc(-c2nn3c(C4CCN(C)CC4)nnc3s2)cc1 was run?
Answer: -11%

Question: COc1ccc(-c2noc(CCn3c(=O)[nH]c4cc5c(cc4c3=O)OCO5)n2)c(OC)c1 was tested. Which “% Inhibition” value did it give?
Answer: -1%

Question: How did the “% Inhibition” value turn out when COc1cccc(-c2nn(-c3nc(-c4ccccc4)cc(C(F)(F)F)n3)c(-c3cccc(OC)c3)c2Cl)c1 was run?
Answer: 54%

Question: With Cc1ccc(C)c(S(=O)(=O)NCCNc2ccc(Nc3ccncc3)nn2)c1 as the compound, how does the “% Inhibition” value read?
Answer: 28%

Question: CCOC(=O)c1cc(F)cc(S(=O)(=O)Nc2ccnc3ncnn23)c1 was tested. Which “% Inhibition” value did it give?
Answer: 34%

Question: For COc1ccc(S(=O)(=O)N(CC(=O)NCc2cccnc2)C2CCCCC2)cc1OC, which “% Inhibition” value is on record?
Answer: -1%

Question: With COc1ccc(CCNC(=O)C2CCN(c3nccn4nc5c(c34)CCCC5)CC2)cc1OC as the compound, how does the “% Inhibition” value read?
Answer: 43%

Question: Which “% Inhibition” value does the source give for O=C(NCc1ccc(F)cc1F)c1ccc(Cn2ccn3nc4c(c3c2=O)CCCC4)cc1 here?
Answer: -8%

Question: Cc1c(Cl)cccc1NC(=O)CN1N=C(C(=O)Nc2ccccc2)CCC1=O was tested. Which “% Inhibition” value did it give?
Answer: -6%

Question: Cc1cc(-c2nnc(Cc3cccc(Cl)c3)o2)n(C)n1 was tested. Which “% Inhibition” value did it give?
Answer: -6%

Question: Which “% Inhibition” value does the source give for CCc1ccc(C(=O)NCCCC2CCCC2O)cc1S(=O)(=O)N1CCOCC1 (stereo not drawn) here?
Answer: 48%

Question: For O=C(O)C1Cc2c([nH]c3ccccc23)C(c2ccc3c4c(cccc24)CC3)N1 (stereo not drawn), which “% Inhibition” value is on record?
Answer: -1%

Question: Which “% Inhibition” value does the source give for CN(C)c1ccc(NC(=O)C[C@@H]2C=CCC2)cc1 here?
Answer: 1%

Question: For CC[C@@H](C(N)=O)N1CCN(Cc2nc(-c3cccs3)no2)CC1, which “% Inhibition” value is on record?
Answer: -4%

Question: How did the “% Inhibition” value turn out when CC(C)c1cc(CN(Cc2cc(C(C)C)c(O)c(C(C)C)c2)C2CCCCC2)cc(C(C)C)c1O was run?
Answer: 96%

Question: Which “% Inhibition” value does the source give for O=C(NCc1nccs1)[C@@H]1CCCN1C(=O)c1ccco1 here?
Answer: -11%

Question: How did the “% Inhibition” value turn out when CCc1ccc(C(=O)Nc2cnc(-n3ccnc3)nc2)cc1 was run?
Answer: 46%

Question: For COc1ccc(NC(=O)C2(N(Cc3nc(-c4ccccc4)cs3)C(=O)Cn3nnc4ccccc43)CCCCC2)cc1, which “% Inhibition” value is on record?
Answer: 23%

Question: CCOc1ccc(C/C(=C/N)c2nc(-c3ccc(Cl)cc3)cs2)cc1 was tested. Which “% Inhibition” value did it give?
Answer: 9%

Question: With CC(=O)N(c1nc(COc2nc(C(C)(C)C)no2)cs1)c1ccccc1F as the compound, how does the “% Inhibition” value read?
Answer: 17%

Question: How did the “% Inhibition” value turn out when COC1CCC(CC(=O)N[C@H]2CC(=O)N(c3ccccc3)C2)CC1 (stereo partly drawn) was run?
Answer: 2%

Question: With CNCCc1c(-c2ccccc2)[nH]n(-c2ccccc2)c1=O as the compound, how does the “% Inhibition” value read?
Answer: 63%

Question: For CCC[N+]1(CC#C[C@@](O)(c2ccccc2)C(C)(CC)CC)CCCCC1, which “% Inhibition” value is on record?
Answer: 48%

Question: Which “% Inhibition” value does the source give for COC(=O)c1cn(CCc2c[nH]c3ccccc23)cc(C(=O)OC)c1=O here?
Answer: 4%

Question: With Cc1nn(Cc2ccc(Cl)cc2)c(=O)n1-c1ccc(OCc2ccccc2)cc1 as the compound, how does the “% Inhibition” value read?
Answer: -9%

Question: Cc1noc(Cn2c(=O)c3ccccc3n(CC(=O)Nc3ccc(F)cc3F)c2=O)n1 was tested. Which “% Inhibition” value did it give?
Answer: 1%

Question: CN(CCN)c1ccc(Br)cc1C#N was tested. Which “% Inhibition” value did it give?
Answer: 0%

Question: For O=C(CCC(=O)NCc1ccccc1)NCCCN1CCOCC1, which “% Inhibition” value is on record?
Answer: 4%

— ChEMBL document CHEMBL4888484, “Replenishing the malaria drug discovery pipeline: Screening and hit evaluation of the MMV Hit Generation Library 1 (HGL1) against asexual blood stage Plasmodium falciparum ,using a nano luciferase reporter read-out” (2022)
